From the RNAGym collection of RNA variant scans (doi:10.1073/pnas.2313332121) come the findings set out here.

Variants at the background level are over-represented here.

B1: TPR 5TU (parent)
chain: GGAUCUUCUCGAUCUAACAAAAAAGACAAAUCUGCCACAAAGCUUGAGAGCAUCUUCGGAUGCAGAGGCGGCAGCCUUCGGUGGCGCGAUAGCGCCAACGUUCUCAACUAUGACACGCAAAACGCGUGCUCCGUUGAAUGGAGUUUAUCAUG

In the data set the parent is B1. The data set is described as follows: polymerase ribozyme fitness, log enrichment relative to wild type (log ratio); higher = more active; in vitro selection for triplet polymerase activity. The gist of the method:
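Libraries of mutants in each subunit of a heterodimeric triplet polymerase ribozyme were generated by PCR and transcribed. In triplicate, each went through one in vitro selection round: annealing with biotinylated primer, partner subunit and triplets; frozen incubation at −7 °C; gel excision of extended constructs; streptavidin-bead capture; RT-PCR. Fitness, taken from Illumina sequencing of input and output libraries, is the logarithm of a genotype's enrichment over wild-type enrichment, averaged across replicates with inverse-variance weights. The logarithm is base 2, and genotypes needed ≥10 input reads and ≥1 read per output to be kept.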
In the case of U13A U15C C87A A98U U111A, the “polymerase ribozyme fitness (log ratio)” value is at most -4.2.
The same measure for U13G A40U U45G U56A C72U C87G U130G: at most -4.2; for U13A G50C A52C C87A A98U G117U C123U: at most -4.2.
Turning to U13A C14U A39U A40U A49C C57A C69A U134G U139C G141U U148G, the “polymerase ribozyme fitness (log ratio)” value is at most -4.2.
The same measure for C14A G92U C93U A138C: at most -4.2; for C14A A20C C27A U44A G70A G83A A107G U135G: at most -4.2; for U13C C18G A19C G68C C85A C118U: at most -4.2.
With C14G A19G C96G U139A G141A the figure was at most -4.2.
With U13C A17G A49C C54A G65C G83A G86A U104C G124U G128U the figure was at most -4.2; with U13G A24U U56A G59A A66G U146G, at most -4.2; with U13G C38U A41C C54A U61G C87A G100C G143U, at most -4.2.
For the variant C14A A39U C69U C85A, the “polymerase ribozyme fitness (log ratio)” value is at most -4.2.
For C14G A17U U53A G81A C85U G92A, the “polymerase ribozyme fitness (log ratio)” value was at most -4.2.
The same measure for C14G A20U A24U U33G U56A C57G C79U C118G A138U: at most -4.2.
For the variant U13C A16U C57U C75U G83C C105G, the “polymerase ribozyme fitness (log ratio)” value is at most -4.2.
Consider U13G C18A A21C A40G A41C G58U C69U C79G G92C, for which the “polymerase ribozyme fitness (log ratio)” value was at most -4.2.
For the variant C14G A16U U33C G48U G59U A60C C85U U101G A120U U144G U148C, the “polymerase ribozyme fitness (log ratio)” value is at most -4.2.
For C14A A22C A23U C54U C93G C95U C125U C132A, the “polymerase ribozyme fitness (log ratio)” value is at most -4.2.
With C14G A17G G68C A120U G152A the figure was at most -4.2; with U13G G46U C93U U135G U148C, at most -4.2; with U13G A22G A24U A28G C76U U78A C79G G81A U102G C114A, at most -4.2.
With U13A C18U C51U A52U G74U U82A G117A A120C A150U, the “polymerase ribozyme fitness (log ratio)” value was at most -4.2.
Take C14G A19G A39C G141A A142C U144G: the “polymerase ribozyme fitness (log ratio)” value is at most -4.2.
For the variant U13G A47C G67C U78G C93A C99G U104G A110G G112A G133U, the “polymerase ribozyme fitness (log ratio)” value was at most -4.2.
With C14G A24U A26C C36G C54G U61G C103G A106G A142G the figure was at most -4.2; with U13C A19C C51U A66C C103G A138U, at most -4.2; with C14G A24G A47G A52G U78A, at most -4.2.
With U13G C36G C57U C87U U90G A110C A115U G124C C149G the figure was at most -4.2; with U13A U44G G46A U61G C85A A115G U127C, at most -4.2; with U13G A16C A21U G50C A73G C103U, at most -4.2.
With U13C A17C A30C C35U C51A C75G C95G A106U U146A C149U the figure was at most -4.2; with U13G U53A U56A G84A, at most -4.2.
In the case of C14A U31G C76A C93G A106C, the “polymerase ribozyme fitness (log ratio)” value was at most -4.2.
Regarding C14A A60G G70C A107C U111A, the “polymerase ribozyme fitness (log ratio)” value is at most -4.2.
As for U13G A39C G42A A49G U55A A60U U61G A64G A107U A115U A121U U135A, the “polymerase ribozyme fitness (log ratio)” value was at most -4.2.
Turning to C14G A24G A47C G83C C103G C116U, the “polymerase ribozyme fitness (log ratio)” value is at most -4.2.
The same measure for C14A A29C C96G: at most -4.2; for C14A A49C G86U U111G U139A U144G: at most -4.2.
On to C14A U31A C75G C95U C116A C118U, for which the “polymerase ribozyme fitness (log ratio)” value is at most -4.2.
Turning to U13C A37C A39U A47C C54U C85U A121G U127G, the “polymerase ribozyme fitness (log ratio)” value is at most -4.2.
With U13G A30C C85A the figure was at most -4.2.
With U13G U56A U77C G84A U144A the figure was at most -4.2; with C14A G48C A52G C57A G70A U77A A91G, at most -4.2; with C14G A21G G34A A37C G50C C57G A60C A64G, at most -4.2.
With U13G C27A U44C C76U C93U G136A, the “polymerase ribozyme fitness (log ratio)” value was at most -4.2.
On to U13G A19C A37C U44A U82A C96A G152U, for which the “polymerase ribozyme fitness (log ratio)” value was at most -4.2.
Turning to U13C A20C A21C G58A U82A U101A, the “polymerase ribozyme fitness (log ratio)” value is -1.36.
In the case of U13A U45A G84A, the “polymerase ribozyme fitness (log ratio)” value is at most -4.2.
Regarding C14A G58U, the “polymerase ribozyme fitness (log ratio)” value is -1.88.
With C14A G58C the figure was -1.28; with C14A A30U C69G A89U C95A, at most -4.2.
C14G: the “polymerase ribozyme fitness (log ratio)” value was -2.09.
With C14A the figure was -1.08.
With U13C A19U U55A G83A U111G, the “polymerase ribozyme fitness (log ratio)” value is at most -4.2.
With U13C A19U A47G U56A C129A U144A the figure was at most -4.2.
The same measure for U13G A39C A89C A97G C114A C123U G141C: at most -4.2; for C14G A24U C27G C32A A39C: at most -4.2.
With C14A A17C A29U G46C A60C G70C C108U G140U, the “polymerase ribozyme fitness (log ratio)” value is at most -4.2.
With U13C C14G U33C A47G U55G G136A the figure was at most -4.2; with C14G A19C U31C C69G G74A G84U A107G U145A U151C, at most -4.2.
The same measure for C14G A19C A28C G42A A66G C93U C103U U109A G136C: at most -4.2; for C14A A20U A26U U77G C118A G140U G141U: at most -4.2; for C14G A26C U31A A49U U55G G100U G126A: at most -4.2.
As to U13G G25A G83A, the “polymerase ribozyme fitness (log ratio)” value is -4.07.
With C14A G94U A107G the figure was at most -4.2.
The same measure for U13G A60U C63U G84A G86U A120C: at most -4.2.
The same measure for U13C A52G U56G C96U A137G: at most -4.2.
For the variant C14A C38U A40C C57U C75G, the “polymerase ribozyme fitness (log ratio)” value was at most -4.2.
With C14A A24U G59C C93G C99U U139G G143U the figure was at most -4.2; with U13C A21G U31C G42A A52C C95A C129G, at most -4.2; with U13A A24U C87A C123A, at most -4.2.
With U13C U56A A60G C95U C105G U109G C132A U145G, the “polymerase ribozyme fitness (log ratio)” value is at most -4.2.
For the variant U13A U53A C63G A97U U102G A142C, the “polymerase ribozyme fitness (log ratio)” value is at most -4.2.
On to C14G A26C C79A G94U C95A A142G, for which the “polymerase ribozyme fitness (log ratio)” value was at most -4.2.
Consider U13G C43A C79U, for which the “polymerase ribozyme fitness (log ratio)” value was at most -4.2.
With U13G A49U A60G C75U C76A C85G A91G the figure was at most -4.2; with U13C C32G A40U G58U C76A, at most -4.2.
Take U13G A41C C93A: the “polymerase ribozyme fitness (log ratio)” value was at most -4.2.
Take U13C C43A U44A G59C A98G: the “polymerase ribozyme fitness (log ratio)” value was at most -4.2.
As to U13G G58C A60U C76U U139G U145A, the “polymerase ribozyme fitness (log ratio)” value is at most -4.2.
With U13G C27G A39C U90G C95U the figure was at most -4.2.
U13C C43A A60G C85U U148C: the “polymerase ribozyme fitness (log ratio)” value was at most -4.2.
The same measure for U13G A91U: at most -4.2.
